# Changes are numbered by the printed parent chain.
# B1: ZH 03 as periplasmic ABD fusion AQHDEALE-[ZH 03]-VDYV-[ABD]-YVPG (designed binder)
# chain: AQHDEALEVDAKYAKEAWQAMEEILWLPNLTNTQQLAFIYKLEDDPSQSSELLSEAKKLNDSQAPKVDYVLAEAKVLANRELDKYGVSDYYKNLINNAKTVEGVKALIDEILAALPYVPG
# notes: domain: GA3
# B2: ZH 01 as periplasmic ABD fusion AQHDEALE-[ZH 01]-VDYV-[ABD]-YVPG (designed binder)
# chain: B1 chain with A17D, Q19D, M21F, E22W, L25I, N32D, T33A, L36R
# notes: domain: GA3
# B3: ZH 30 as periplasmic ABD fusion AQHDEALE-[ZH 30]-VDYV-[ABD]-YVPG (designed binder)
# chain: AQHDEALEVDAKYAKEAWSAEQEIWDLPNLTLQQFQAFIMKLLDDPSQSSELLSEAKKLNDSQAPKVDYVLAEAKVLANRELDKYGVSDYYKNLINNAKTVEGVKALIDEILAALPYVPG
# notes: domain: GA3
# B4: ZH 31 as periplasmic ABD fusion AQHDEALE-[ZH 31]-VDYV-[ABD]-YVPG (designed binder)
# chain: B3 chain with S19L, D26Q, L32E, Q33A, M40L, L43I
# notes: domain: GA3
# B5: ZH 02 as periplasmic ABD fusion AQHDEALE-[ZH 02]-VDYV-[ABD]-YVPG (designed binder)
# chain: B1 chain with W18E, Q19D, E22H, N32W, T33E, L36K
# notes: domain: GA3
# B6: ZA3975 ([ZH 32]-ASGS-PP013) (designed binder)
# chain: AEAKYAKEAWLAEQEIWQLPNLTEAQFQAFILKLIDDPSQSSELLSEAKKLNDSQAPKASGSLAEAKEAANAELDSYGVSDFYKRLIDKAKTVEGVEALKDAILAALP
# Experiments:
# [1] = target: T1, HMGB1(disulfide), disulfide linked form of full-length HMGB1 (HMGB1C23-C45C106h) (rat, UniProt P63159 1-215, disulfide C23-C45; C106 reduced); assay: ELISA; periplasmic Z-ABD captured on anti-ABD antibody, 100 nM b-HMGB1(disulfide)
# T1 construct: unlabelled in Biacore and Attana; also called b-HMGB1(disulfide)
# T1 sequence: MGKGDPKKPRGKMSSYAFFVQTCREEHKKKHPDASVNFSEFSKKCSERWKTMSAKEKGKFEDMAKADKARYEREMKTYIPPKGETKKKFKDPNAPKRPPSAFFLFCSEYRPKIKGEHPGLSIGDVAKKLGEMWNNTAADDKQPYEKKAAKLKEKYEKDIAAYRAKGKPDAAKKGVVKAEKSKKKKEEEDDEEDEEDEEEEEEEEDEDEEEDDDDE
# [2] = target: T2, GST-boxA(red), reduced form of A-box domain of HMGB1 with N-terminal GST tag (human, cysteines reduced); assay: ELISA titration; captured periplasmic Z-ABD, dilution series of b-GST-boxA(red)
# T2 construct: Used biotinylated (b-GST-boxA(red)) in ELISA; also called b-GST-boxA(red)
# Method: (§1) EC50 analysis of Z variants: A sub-group of HMGB1 binding Z variants was subjected to an analysis of their response against a dilution series of b-GST-boxA(red) or b-GST-boxB(red) following the procedure described above. The Z variants ZH 01 (SEQ ID NO:1), ZH 02 (SEQ ID NO:2) and ZH 03 (SEQ ID NO:3) were diluted 1:16 in PBST 0.05% and target protein b-GST-boxA(red) was diluted in PBSC (PBS with 0.5% casein (Sigma cat no. C-8654)) with 0.5-1 mM DTT and added at a concentration of 1 μM and diluted stepwise 1:5 down to 60 μM. The Z variants ZH 30 (SEQ ID NO:30) and ZH 31 (SEQ ID NO:31) were diluted 1:16 in PBST 0.05% and b-GST-boxB(red) was diluted in PBSC without DTT present and added at a concentration of 7 μM and diluted stepwise 1:5 down to 90 μM. As a background control, all Z variants were also assayed with no target protein added. Periplasm containing the ABD moiety only was used as a negative control. In the same assay, the selectivity of the Z variants was tested by incubating periplasm samples with the opposite HMGB1 domain (i.e. b-GST-boxA(red) or b-GST-boxB(red)) than the one used as target in selection, added at a concentration of 1000 nM. Data were analyzed using GraphPad Prism 5 and non-linear regression, and EC50 values (the half maximal effective concentration) were calculated.
# EC50 analysis of Z variants: A subset of Z variants having the highest ELISA values in the ELISA screening experiments described above was selected and subjected to a target titration in ELISA format. Periplasm samples were incubated with a serial dilution of either b-GST-boxA(red) or b-GST-boxB(red). Obtained values were analyzed and EC50 values calculated (Table 5).
# [3] = target: T2, GST-boxA(red), reduced form of A-box …; assay: ELISA; periplasmic Z-ABD captured on anti-ABD antibody, 2 nM b-GST-boxA(red)
# Method: (§2) ELISA screening of Z variants against reduced A-box and B-box: The binding of Z variants to HMGB1 was analyzed in ELISA assays. Half-area 96-well ELISA plates (Greiner, cat. no. 675061) were coated at 4° C. overnight with 2 μg/ml of an anti-ABD goat antibody (produced in-house) diluted in coating buffer (50 mM sodium carbonate, pH 9.6; Sigma, cat. no. C3041). The antibody solution was poured off and the wells were washed in water and blocked with 100 μl of PBSC (PBS supplemented with 0.5% casein; Sigma, cat. no. C8654) for 1-3 h at RT. The blocking solution was discarded and 50 μl periplasmic solutions, diluted 1:16 with PBST 0.05%, were added to the wells and incubated for 1.5 to 2.5 h at RT under slow agitation. As a negative control, periplasmic ABD was added. The supernatants were poured off and the wells were washed 4 times with PBST 0.05%. Then, 50 μl of either b-GST-boxA(red), at a concentration of 2 nM, or b-GST-boxB(red), at a concentration of 100 nM, in PBSC+1-2 mM DTT, was added to each well of A-box binding Z-variants or B-box binding Z-variant, respectively. The plates were incubated for 1 h at RT followed by washes as described above. Streptavidin conjugated HRP (Thermo Scientific, cat. no. N100) diluted 1:30,000 in PBSC+1-2 mM DTT, was added to the wells and the plates were incubated for approximately 45 min. After washing as described above, 50 μl ImmunoPure TMB substrate (Thermo Scientific, cat. no. 34021) was added to the wells and the plates were treated according to the manufacturer's recommendations. The absorbance at 450 nm was measured using a multi-well plate reader, Victor3 (Perkin Elmer).
# ELISA screening of Z variants against reduced A-box and B-box: The clones obtained after four cycles of selection were produced in 96-well plates and screened for b-GST-boxA(red) or b-GST-boxB(red) binding activity in ELISA.
# [4] = target: T3, boxA(disulfide), disulfide linked form of A-box domain of HMGB1 (human, UniProt P09429 1-89, disulfide C23-C45); assay: ELISA; periplasmic Z-ABD captured on anti-ABD antibody, 1000 nM b-boxA(disulfide)
# T3 construct: also called b-boxA(disulfide)
# T3 sequence: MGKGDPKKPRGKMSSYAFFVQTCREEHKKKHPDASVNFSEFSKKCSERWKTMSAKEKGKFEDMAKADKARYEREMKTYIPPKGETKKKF
# [5] = target: T4, GST-boxB(red), reduced form of B-box domain of HMGB1 with N-terminal GST tag (human, cysteine reduced); assay: ELISA titration; captured periplasmic Z-ABD, dilution series of b-GST-boxB(red)
# T4 construct: Used biotinylated (b-GST-boxB(red)) in ELISA; also called b-GST-boxB(red)
# Method: as §1, with “In the same assay, the selectivity of the Z variants was tested by incubating periplasm samples with the opposite HMGB1 domain (i.e. b-GST-boxA(red) or b-GST-boxB(red)) than the one used as target in selection, added at a concentration of 1000 nM.” left out
# EC50 analysis of Z variants: A subset of Z variants having the highest ELISA values in the ELISA screening experiments described above was selected and subjected to a target titration in ELISA format. […] Obtained values were analyzed and EC50 values calculated (Table 5).
# [6] = target: T4, GST-boxB(red), reduced form of B-box …; assay: ELISA; periplasmic Z-ABD captured on anti-ABD antibody, 100 nM b-GST-boxB(red)
# Method: as §2, with “Streptavidin conjugated HRP (Thermo Scientific, cat. no. N100) diluted 1:30,000 in PBSC+1-2 mM DTT, was added to the wells and the plates were incubated for approximately 45 min. After washing as described above, 50 μl ImmunoPure TMB substrate (Thermo Scientific, cat. no. 34021) was added to the wells and the plates were treated according to the manufacturer's recommendations.” left out, “Elmer). […]” for “Elmer).”
# [7] = target: T5, HMGB1(red), fully reduced form of full-length HMGB1 (HMGB1C23hC45hC106h) (rat, UniProt P63159 1-215, all cysteines reduced (C23h, C45h, C106h)); assay: SPR (Biacore 2000); Z-ABD captured on HSA, analyte injected (8.3 and 25 nM), 1.5 mM DTT; 1:1 Langmuir model
# T5 construct: Produced by HMGBiotech; also called HMGB1(reduced); b-HMGB1(red)
# T5 sequence: T1 sequence
# Method: In a third experiment, ZA3975 was analyzed for binding to HMGB1(red) under reduced conditions (1.5 mM DTT included in the sample and running buffer). The ligand ZA3975 was diluted in HBS-EP buffer to a concentration of 100 nM and injected during 4 min. The analyte, HMGB1(red), was diluted in HBS-EP buffer to a concentration within the range of 8.3 to 675 nM and injected during 4 min, followed by dissociation in running buffer for 20 min. After dissociation, the surfaces were regenerated with three injections of 10 mM HCl.
# Biacore kinetic and specificity analysis: The interactions of the A-box binding Z-ABD polypeptides ZA3812 (SEQ ID NO:35) and ZA3914 (SEQ ID NO:36) with four different HMGB1 variants were analyzed in a Biacore instrument by injecting various concentrations of HMGB1 variants over a surface containing ZA3812 and ZA3914, respectively, captured on immobilized HSA. […] In addition, the interaction of the B-box binding Z-ABD polypeptide ZA3975 (SEQ ID NO:37) was analyzed for binding to HMGB1(red) in the same manner.
Binder,ELISA response (absorbance 450 nm) [1],response relative to the blank control [1],EC50 [2],ELISA response (absorbance 450 nm) [3],response relative to the blank control [3],ELISA response (absorbance 450 nm) [4],response relative to the blank control [4],EC50 [5],response relative to the blank control [6],Kd [7],koff [7],kon [7]
B1,2.96 AU,≥ 3 x blank control,2.7 nM,0.6 AU,≥ 3 x blank control,1.17 AU,≥ 3 x blank control,–,–,–,–,–
B2,3.07 AU,≥ 3 x blank control,2.2 nM,0.7 AU,≥ 3 x blank control,3.06 AU,≥ 3 x blank control,–,–,–,–,–
B3,–,–,–,–,–,–,–,6.9 nM,≥ 2.3 x blank control,–,–,–
B4,–,–,–,–,–,–,–,9.9 nM,≥ 2.3 x blank control,–,–,–
B5,1.17 AU,≥ 3 x blank control,5.6 nM,0.2 AU,≥ 3 x blank control,2.02 AU,≥ 3 x blank control,–,–,–,–,–
B6,–,–,–,–,–,–,–,–,–,0.11 nM,0.00028 s⁻¹,2.5e+06 M⁻¹ s⁻¹
